In the supplement of paper PMC11880418:
Counter-ions that a name gives are not always drawn. This is one part of the list. The data scatter; read single values as rough.

Each compound was assayed on MKN45 (assay: ALDHbr (CSC) cell proportion score relative to DMSO vehicle (ratio to DMSO); breast (SUM159) / gastric (MKN45) / pancreatic (PANC1) / colon cancer lines; ALDHbr cells have high ALDH activity and are rich in cancer stem cells (CSC); higher = more CSC (ALDHbr) cells remaining). Conditions: 10 µM; 72 h.
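Further: High-content imaging of ALDEFLUOR-stained cells with Hoechst-labelled nuclei in 384-well plates, triplicate wells, scored as Z-score against 0.1% DMSO vehicle, negative meaning fewer ALDHbr cells.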

Row | SMILES | ALDHbr
1 | N#Cc1cc(NC(=O)C(=O)O)c(Cl)c(NC(=O)C(=O)O)c1 [Lodoxamide] | 1.06
2 | CCOc1cc(CC(=O)N[C@@H](CC(C)C)c2ccccc2N2CCCCC2)ccc1C(=O)O [Repaglinide] | 0.913
3 | Nc1nc(NC2CC2)c2ncn([C@H]3C=C[C@@H](CO)C3)c2n1 [Abacavir Sulfate] | 0.955
4 | O=C(NCC1CCCCN1)c1cc(OCC(F)(F)F)ccc1OCC(F)(F)F (stereo not drawn) [Flecainide acetate] | 0.936
5 | OCc1cc(C(O)CNCCCCCCOCCCCc2ccccc2)ccc1O (stereo not drawn) [Salmeterol] | 1.03
6 | c1ccc(CNc2ncnc3nc[nH]c23)cc1 [Aminopurine, 6-benzyl] | 0.947
7 | Cc1cc(C(C)(C)C)cc(C)c1CC1=NCCN1 [Xylometazoline hydrochloride] | 1.01
8 | C[C@H](O)C(=O)Nc1c(I)c(C(=O)NC(CO)CO)c(I)c(C(=O)NC(CO)CO)c1I [Iopamidol] | 1.11
9 | CC(=O)CC(c1ccc([N+](=O)[O-])cc1)c1c(O)c2ccccc2oc1=O (stereo not drawn) [Acenocoumarol] | 0.962
10 | Cc1c(Cl)cccc1Nc1ncccc1C(=O)O [Clonixin Lysinate] | 1.14
11 | COc1ccc(CN2CCN(C(c3ccc(F)cc3)c3ccc(F)cc3)CC2)c(OC)c1OC [Lomerizine hydrochloride] | 0.543
12 | CNCCC=C1c2ccccc2C=Cc2ccccc21 [Norcyclobenzaprine] | 1.08
13 | CC[C@H]1OC(=O)C[C@@H](O)[C@H](C)[C@@H](O[C@@H]2O[C@H](C)[C@@H](O[C@H]3C[C@@](C)(O)[C@@H](O)[C@H](C)O3)[C@H](N(C)C)[C@H]2O)[C@@H](CC=O)C[C@@H](C)C(=O)/C=C/C(C)=C/[C@@H]1CO[C@@H]1O[C@H](C)[C@@H](O)[C@@H](OC)[C@H]1OC [Tylosin] | 1.13
